Results on 6 molecules are retold here after patent publication US20190309060A1 (PHILOGEN S P A, published 2019).

The target of assay [1] is T1, recombinant human galectin-4 (Uniprot P56470, residues 1-323) (human, UniProt P56470 1-323, surface lysine residues biotinylated with NHS-LC-biotin).
T1 construct: Expressed in CHO.S cells and immobilized on a CM5 chip for BiaCore; also called biotinylated galectin-4; recombinant galectin-4 antigen
T1 sequence: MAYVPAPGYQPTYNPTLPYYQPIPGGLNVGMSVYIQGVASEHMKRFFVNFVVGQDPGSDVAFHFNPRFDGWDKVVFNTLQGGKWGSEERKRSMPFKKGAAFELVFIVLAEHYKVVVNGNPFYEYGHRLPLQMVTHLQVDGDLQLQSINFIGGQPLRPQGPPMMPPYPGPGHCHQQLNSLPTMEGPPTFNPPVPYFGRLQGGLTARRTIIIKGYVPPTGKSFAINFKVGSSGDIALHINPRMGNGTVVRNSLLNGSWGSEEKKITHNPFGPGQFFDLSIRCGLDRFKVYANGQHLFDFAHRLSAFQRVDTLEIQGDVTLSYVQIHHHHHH
In words: SPR (BiaCore T3000), galectin-4 on CM5 chip, scFv injected. The method, then:
Binding of the purified scFvs to the recombinant galectin-4 antigen was confirmed by surface plasmon resonance experiments using a BiaCore T3000 instrument (GE Healthcare). Human galectin-4 was immobilized on CM5 sensor chip (GE Healthcare), and serial dilutions at concentrations between 500 nM and 15.6 nM of the purified scFv antibodies were injected over the surface.
(In general: In SPR one partner is held on a chip, and binding of the other changes the refractive index at the surface.)

Assay [2] addresses T2, human cadherin-17 (as coated on the CM5 chip / used in the affinity ELISA) (human, UniProt Q12864 30-245, limits assumed).
T2 construct: also called human cadherin-17 coated chip
T2 sequence: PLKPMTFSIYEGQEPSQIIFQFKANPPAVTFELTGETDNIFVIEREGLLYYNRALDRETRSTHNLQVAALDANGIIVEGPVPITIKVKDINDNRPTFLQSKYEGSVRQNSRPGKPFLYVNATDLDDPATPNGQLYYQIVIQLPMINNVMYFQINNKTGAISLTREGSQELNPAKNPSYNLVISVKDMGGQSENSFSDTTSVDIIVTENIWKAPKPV
In words: BiaCore (SPR), monomeric scFv at 1000, 350, 175 and 87 nM over a human cadherin-17 coated CM5 chip. The procedure: (§1) For the analysis of the AV17.3 antibody, size-exclusion chromatography was performed on an ÄKTA FPLC system using the Superdex 75 Increase column (Amersham Biosciences). Surface plasmon resonance experiments affinity measurements were performed by BIAcore X100 instrument with purified scFvs. Human Cadherin-17 or mouse Cadherin-17 was immobilized on a CM5 sensor chip (GE Healthcare) and monomeric scFv (AV17.3) were injected as serial-dilution. The concentrations are reported on FIG. 2D and FIG. 2E.
(§2) A more precise affinity constant determination was performed by BiaCore analysis with the monomeric scFv(AV17) obtained by size exclusion chromatography (SEC-75, Amersham Biosciences) on a human cadherin-17 coated chip. […] For the AV17.3 antibody, the affinity constant determination was performed by BiaCore analysis with the monomeric scFv(AV17.3) obtained by size exclusion chromatography (SEC-75i, Amersham Biosciences) on a human cadherin-17 coated chip and a mouse cadherin-17 coated chip.

Assay [3] has as its target T3, mouse cadherin-17 (as coated on the CM5 chip) (mouse, UniProt Q9R100 29-244, limits assumed).
T3 construct: also called murine Cadherin-17
T3 sequence: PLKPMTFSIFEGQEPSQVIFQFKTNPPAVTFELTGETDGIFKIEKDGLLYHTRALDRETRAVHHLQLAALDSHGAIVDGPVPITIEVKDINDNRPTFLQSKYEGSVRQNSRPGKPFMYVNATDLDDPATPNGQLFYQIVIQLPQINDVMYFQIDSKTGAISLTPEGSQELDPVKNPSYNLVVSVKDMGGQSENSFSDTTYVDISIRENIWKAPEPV
Description: BiaCore (SPR), monomeric scFv at 1200, 600, 300 and 150 nM over a mouse cadherin-17 coated CM5 chip. The method, then:
as §1, §2

Assay [4] addresses T4, recombinant human Agr2 (residues 41-175 of human anterior gradient protein 2 homolog) (human, UniProt O95994 41-175, surface lysine residues biotinylated with NHS-LC-biotin (as used in the ELISA; not stated for the CM5 chip)).
T4 construct: Expressed in a BL21-based E. coli strain; also called biotinylated Agr2; recombinant Agr2 antigen
T4 sequence: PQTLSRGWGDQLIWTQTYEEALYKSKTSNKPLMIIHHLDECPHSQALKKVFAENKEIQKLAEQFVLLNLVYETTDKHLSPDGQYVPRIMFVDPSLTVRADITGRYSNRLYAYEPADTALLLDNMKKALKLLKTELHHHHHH
Description: SPR (BIAcore T3000), human Agr2 on CM5 chip, scFv injected. The procedure:
Binding of the purified ScFvs to the recombinant human Agr2 antigen was confirmed by surface plasmon resonance experiments using a BIAcore T3000 instrument (GE Healthcare). Human Agr2 was immobilized on a CM5 sensor chip (GE Healthcare), and serial dilutions of the purified ScFv antibodies at concentrations between 3400 nM and 213 nM were injected over the surface.

In assay [5] the target is T5, avidin (UniProt P02701 25-152).
T5 construct: Negative control surface of the ELISAs; also called avidin-coated wells; wells coated with avidin alone
T5 sequence (looked up): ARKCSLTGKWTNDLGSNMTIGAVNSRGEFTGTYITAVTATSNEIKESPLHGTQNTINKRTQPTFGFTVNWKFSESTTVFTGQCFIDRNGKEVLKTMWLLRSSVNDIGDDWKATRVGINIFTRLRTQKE
In words: ELISA on avidin-coated wells without Agr2; detection with 9E10 and anti-murine Fc-HRP. The method, then:
Various concentrations of the scFv antibody were incubated with biotinylated Agr2 (residues 41-175 of recombinant human Agr2) that had been immobilized on avidin-coated maxisorp wells. Bound scFv antibody was detected using the anti-myc antibody 9E10 and an HRP-conjugated anti-murine Fc antibody. The specificity of the antibody-antigen interaction was confirmed by incubating the scFv antibodies with avidin-coated wells as a negative control. […] Varying concentrations of the scFv (CPR02) antibody were injected over a CM5 chip surface coated with immobilized human Agr2. The BiaCore analysis confirms that scFv (CPR02) antibody binds to human Agr2.
Binding of the purified scFvs to the recombinant Agr2 antigen (consisting of amino acid residues 41-175 of Agr2) was confirmed by ELISA. Maxisorp plates (Nunc) were incubated with avidin at 50 μg/mL in PBS for 6 hours at room temperature. Unbound avidin was removed by washing with PBS and the wells were incubated with biotinylated Agr2 at a final concentration of 0.2 μM overnight at 4° C. […] Bound scFvs were detected using a 1:1000 dilution of HRP-conjugated anti-murine Fc (Sigma Aldrich) and the signal was developed using BM Blue POD substrate (Roche). The ELISA output was recorded at a wavelength of 450 nm, subtracting absorbance at 620 nm as a reference baseline.

Assay [6] concerns the target T2, human cadherin-17 (as coated on the CM5 …). In words: BiaCore (SPR), monomeric scFv over a human cadherin-17 coated CM5 chip. The procedure:
For the analysis of the AV17 antibody, size-exclusion chromatography was performed on an ÄKTA FPLC system using a Superdex 75 column (Amersham Biosciences). Surface plasmon resonance affinity measurements were performed using a Biacore S200 instrument and purified scFvs. Monomeric scFv were injected as a serial-dilution, with concentrations ranging from 950 nM to 9.5 nM.
as §2

In assay [7] the target is T5, avidin. In words: ELISA, avidin-coated Maxisorp wells without galectin-2. On the technique in general: An ELISA detects its analyte on a solid surface through an enzyme-linked reagent.
For assay [8], the target named is T6, human galectin-2, natively expressed (LS174T cells; human colon biopsy sections) (human, UniProt P05162 1-132).
T6 construct: Cytoplasmic protein in fixed, methanol-permeabilized LS174T cells, and native protein in frozen colon sections; also called natively expressed galectin-2 antigen
T6 sequence: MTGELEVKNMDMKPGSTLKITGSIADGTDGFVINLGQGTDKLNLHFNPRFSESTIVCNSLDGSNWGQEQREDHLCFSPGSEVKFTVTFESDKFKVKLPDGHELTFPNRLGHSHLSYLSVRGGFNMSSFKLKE
Description: immunofluorescence of methanol-permeabilized LS174T cells; detection with 9E10 and anti-mouse IgG Alexa594. The procedure: Methanol-permeabilized LS174T cells were stained with the anti-galectin-2 scFv antibody FF06. Antibody binding was detected using the anti-myc tag antibody 9E10 and an anti-mouse IgG Alexa594 antibody. Nuclei were stained with DAPI. To confirm the specificity of staining, cells were treated with an irrelevant scFv in combination with the detection antibodies. Pictures were taken using a 40× objective.
(i) Immunofluorescent staining was performed on the LS174T human colorectal adenocarcinoma cell line. LS174T cells were seeded onto 12 mm diameter glass coverslips at 30 000 cells/well. After 72 hours, cells were fixed in 2%-PFA at room temperature for 10 minutes. Coverslips were then washed with PBS and cells were permeabilized using 90% ice-cold methanol at −20° C. for 10 min. After fixation and permeabilization, coverslips were washed and blocked with 20% v/v fetal bovine serum in PBS for 30 min. After washing with PBS, scFvs were added at a concentration of 20 μg/mL in 3% w/v BSA/PBS solution containing the anti-myc tag antibody at a final concentration of 3 μg/ml, and incubated for 2 hours. Detection of bound scFvs was performed by 1 hour incubation with a goat anti-mouse Alexa594 antibody (Molecular probes) diluted 1:500 in 3% BSA/PBS. […] Coverslips were mounted with fluorescent mounting medium (Dako) and analyzed with an Axioskope2 mot plus microscope (Zeiss), using the 40× objective.

Broadly, the Kd is the equilibrium constant for the complex coming apart. Usually koff stands for a measure of how fast the partners let go of each other. Low values mean slow dissociation, high ones fast dissociation. One may read the kon as a measure of how fast the partners come together. Read a low kon as slower complex formation.

B1: scFv(FF04) (scFv)
scFv: [in this place about 100 residues]MVWFELFDYWGQGTLVTVSSGGGGSGGGGSGGGGEIVLTQSPGTLSLSPGERATLSCRASQSVSSSYLAWYQQKPGQAPRLLIYGASSRATGIPDRFSGSGSGTDFTLTISRLEPEDFAVYYCQQARGMPLTFGQGTKVEIK
notes: Detected with the anti-myc antibody 9E10; also called anti-galectin-4 scFv antibody FF04
On to B1, for which the Kd in assay [1] was found to be 244 nM.

B2: scFv(AV17.3) (scFv)
scFv: [in this place about 100 residues]MSIRGFDYWGQGTLVTVSSGGGGSGGGGSGGGGSSELTQDPAVSVALGQTVRITCQGDSLRSYYASWYQQKPGQAPVLVIYGKNNRPSGIPDRFSGSSSGNTASLTITGAQAEDEADYYCNSSRGVRPLVVFGGGTKLTVLG
notes: The monomeric SEC fraction was used for BiaCore; also called AV17.3 antibody; monomeric scFv(AV17.3)
In assay [2], B2 came in with a koff of 0.125 s⁻¹ and a kon of 149000 M⁻¹ s⁻¹. In assay [3], this molecule yielded a koff of 0.154 s⁻¹ and a kon of 240000 M⁻¹ s⁻¹.

B3: scFv(CPR02) (scFv)
scFv: [in this place about 100 residues]GAGPTFDYWGQGTLVTVSSGGGGSGGGGSGGGGSSELTQDPAVSVALGQTVRITCQGDSLRSYYASWYQQKPGQAPVLVIYGKNNRPSGIPDRFSGSSSGNTASLTITGAQAEDEADYYCNSSPPTRAVVVFGGGTKLTVLG
notes: Detected with the anti-myc antibody 9E10; also called anti-Agr2 scFv antibody; monomeric scFv(CPR02)
Turning to B3, the Kd in assay [4] turned out to be 460 nM. In addition, in the assay with avidin [5], the binding result is listed as “no binding (tested: 1 µM)”.

B4: scFv(FF05) (scFv)
scFv: [in this place about 100 residues]TRRLKFDYWGQGTLVTVSSGGGGSGGGGSGGGGSSELTQDPAVSVALGQTVRITCQGDSLRSYYASWYQQKPGQAPVLVIYGKNNRPSGIPDRFSGSSSGNTASLTITGAQAEDEADYYCNSSAWNYPIVVFGGGTKLTVLG
notes: Detected with the anti-myc antibody 9E10; also called anti-galectin-4 scFv antibody FF05
B4: the Kd in assay [1] worked out at 2000 nM.

B5: scFv(AV17) (scFv)
scFv: [in this place about 100 residues]RPVMFDYWGQGTLVTVSSGGGGSGGGGSGGGGSSELTQDPAVSVALGQTVRITCQGDSLRSYYASWYQQKPGQAPVLVIYGKNNRPSGIPDRFSGSSSGNTASLTITGAQAEDEADYYCNSSLPSPQVVVFGGGTKLTVLG
notes: The monomeric SEC fraction was used for BiaCore; also called anti-cadherin-17 scFv(AV17); monomeric scFv(AV17)
Consider B5, for which, in assay [6], the koff amounted to 0.127 s⁻¹ and the kon turned out to be 95100 M⁻¹ s⁻¹.

B6: scFv(FF06) (scFv)
scFv: [in this place about 100 residues]TRPFRVFDYWGQGTLVTVSSGGGGSGGGGSGGGGSSELTQDPAVSVALGQTVRITCQGDSLRSYYASWYQQKPGQAPVLVIYGKNNRPSGIPDRFSGSSSGNTASLTITGAQAEDEADYYCNSSRSRRPAVVFGGGTKLTVLG
notes: Detected with the anti-myc antibody 9E10; also called anti-galectin-2 scFv antibody FF06
As to B6, the binding result is “no binding (tested: scFv dilutions between 500 nM and 4 nM)” in the assay with avidin [7]; “binds” in assay [8].
